The supplement of paper PMC3334620
Over roughly 33,000 sequences, “E-score (-0.5 to 0.5)” has its median near -0.054; the highest 2% begin near 0.39. Some of the results follow.

Target: Ylr278c (UniProt Q05854)
Assay: PBM E-score (8-mer binding enrichment) (E-score (-0.5 to 0.5)); higher = stronger / more preferred TF binding; most listed sequences are background and not binding sites
Settings: protein concentration: 200 nM; construct: GST-DNA-binding domain
Experimental: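 Universal 'all 10-mer' protein binding microarrays (Agilent AMADID 015681) probed with GST-tagged S. cerevisiae TFs (full-length or DBD) made by in vitro transcription/translation (PURExpress), about 100-200 nM. Bound TF was detected with fluorescent anti-GST. Each ungapped 8-mer (which stands for itself and its reverse complement) is scored by the PBM enrichment score (E-score), a modified Wilcoxon-Mann-Whitney statistic from -0.5 to +0.5, computed with the Universal PBM Analysis Suite. Scale: above 0.35 generally sequence-specific binding.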

Sequence	PBM E-score
CTTCGAGA	-0.25
GTCAAAAA	-0.166
AAAGTGAC	-0.102
CCTAGTCA	-0.332
TAAATATA	0.0739
ACTGGCCT	0.0103
GCTTGGCA	-0.34
CGCTGATA	0.00244
ACGGCTGG	-0.112
ACAGGCGG	0.193
AGGTACGG	0.0825
CAGAGTAG	-0.16
ATGACATG	-0.263
ATAACTTA	-0.18
CCCCGCCG	0.356
GAGTTGTA	0.0552
CATTAACA	-0.0451
CGACTGAG	-0.181
AGTGGAAT	0.0572
CCTAACGC	0.0801
CATCAGTA	-0.233
AGCTGAAT	-0.156
AACCGAGG	-0.189
CGTTCCTC	0.134
CACTGTTA	-0.232

Sequence	PBM E-score
ACCGCTGC	-0.0483
CATTGTAA	-0.116
CATCATGA	-0.183
ACGACTCC	-0.0232
AACCGCAG	-0.0582
ACAGCTGC	-0.166
ATAACCTG	-0.188
ATGATTGA	-0.215
CTGACCTA	-0.183
GGAGGGCC	0.19
ACCACACA	-0.147
CCACGCAC	-0.0469
ATATGGTC	-0.00161
ATCTGCCA	-0.139
CTCGCTTA	0.00111
AAATTGTT	0.00433
ATACCTCG	-0.0876
CCTATCGC	0.0771
AAGCGGGC	0.0848
AGACGGCA	0.111
ATGGCGCC	0.083
AATCGCGA	0.122
CCGATCCG	0.424
TATGTCAA	0.109
AAGTCGCA	-0.00263

Sequence	PBM E-score
CCATAAGC	-0.105
CAGCACTG	-0.0915
GGCAAGGA	0.0422
CCGGTAAA	0.383
AAGAGAGC	-0.14
ACTCGACC	-0.0462
ATAGATAA	0.0665
CACTGTAG	-0.0461
AGAGCGCC	0.0193
AGTACCGA	0.188
GCCACAAC	-0.0472
CCACAGGC	-0.306
AGCCATCG	0.0731
GACTGATC	-0.125
AAGCCCGC	0.266
ACGAGCCA	-0.224
GATTGACC	-0.0654
GATTGACA	-0.0352
AGGGTCTG	-0.203
AGTCTAAT	-0.157
CAGACCAG	-0.181
CCTGTGCA	-0.189
AGACATTC	-0.121
CCAAAGAA	-0.0951
CATCGATA	0.0361

Sequence	PBM E-score
CGCCGACG	0.339
ACACCCCC	-0.133
GTGGGAAC	-0.189
GGCGCCAC	0.0927
CAGCTTCC	-0.0366
TGGATACA	-0.256
AAAGTAAG	-0.263
CATCGGGC	0.211
ACGACTAA	-0.226
GCCAGCAA	-0.1
CCCGTTGA	-0.0405
GGCGGACC	0.413
CTAAACAC	-0.033
AGGGATCG	-0.0441
CACCTCAG	-0.255
CAAGGCCA	-0.211
CGTGAGGC	-0.0809
GGCGGGAA	0.236
ACGACTAT	-0.191
CTCATCCC	-0.0552
ACCGCCCT	-0.0338
CAGATTGC	-0.172
ATTTAGTC	0.126
GCCAACTA	-0.167
CGAAAAGC	-0.0191

Sequence	PBM E-score
CCATTCGC	-0.127
TGTCGTAA	-0.3
CCCGTGTC	0.223
CAGAGGAA	-0.153
CACGGTCG	-0.0763
TCTAGGCA	-0.137
CTGTCTAA	-0.0463
TCCAAGCA	-0.0596
GATTCCGC	0.355
ACGGTGGG	0.062
ATCGTAAC	0.108
CGGTACCG	0.38
GGCTTTTA	0.114
GCTGGTCC	0.036
AATATGTC	-0.0476
CGCGAGGA	0.0533
ACTTGTAA	-0.144
AAATAAGC	-0.104
TGACAACA	-0.219
ACTAGGCC	-0.126
AGTAAAGG	0.0688
AGAGGTGG	-0.0634
CACGCGAG	-0.0695
GAGCAGAC	-0.166
CACATGCC	-0.0681

Sequence	PBM E-score
ACTCGCAT	-0.0232
CTTGGGGA	-0.0557
CCGTAAGG	-0.122
GTTAGATA	-0.246
GGAACCTA	0.0805
ACTGAATG	0.0241
CGCCTACG	-0.0671
TGACCAAA	-0.121
AATAATCT	0.0605
ATTAGGCG	0.0518
ATGAACGA	-0.166
CACCTCAA	-0.108
ATGACATC	-0.0619
CCCTAGGG	-0.314
TTCAGGAA	-0.0794
CTTGCCAA	-0.243
AAAGACCA	-0.208
GGTGACGA	-0.251
CAGCTCCC	-0.153
GAACCTCC	0.192
ATTAAACA	-0.193
AATATCTA	-0.248
CGCTGCTC	-0.105
CCTTAATC	-0.00157
AAATTCGC	0.0526

Sequence	PBM E-score
CTACAATC	-0.0758
CCGACAGG	0.276
ATCGCGTG	0.0973
CAATACAG	-0.181
CTTTGGAA	-0.088
CGGATATA	0.393
CAACGCCC	-0.0163
TAAACAAA	-0.0843
CGGCTTGA	0.058
CCTTACCA	-0.322
CCAGCACC	-0.116
ACTTAAAG	-0.199
AATGTTAT	-0.153
ACCACCCC	-0.0206
CACCTCTA	-0.0927
CTGTTAAC	0.0467
AAGGTTAG	-0.253
CGATCAGC	0.0597
GGCCAGTA	-0.0297
AGATCCCG	0.31
CAGGGCCC	-0.0214
CGTATTTA	0.0653
AGGCTACA	-0.324
ACTCTCAA	-0.406
AGAACATC	-0.0671

Sequence	PBM E-score
AATGTGCG	0.166
ACAAAGGC	-0.14
AACGTGCC	0.012
GGCACTGA	0.0515
AGCTTCTG	0.00784
CTAACTTC	-0.0501
GGACCTCA	-0.0375
GCTTCAAA	0.00432
ATGAGGGC	0.0575
AACCTATG	-0.27
CGGTAAGC	0.221
AGCTTAAA	-0.183
CCGCAAGC	0.0153
GTCGCGAC	0.204
CACGTGCA	-0.27
CTTAGCAA	-0.178
ACTGATTC	-0.114
GAAATTCA	0.0664
CACAGAGC	-0.2
AGATTTTG	-0.176
GACATAAC	0.179
AGTGTAGG	-0.21
ACTCAAGT	-0.133
GGGCTACA	-0.0376
TGCGGACA	0.356

Sequence	PBM E-score
AACAACAT	-0.13
GCGCTTAC	0.144
CACCCGCA	0.146
CTCCGTGC	0.416
ACAGGGAC	-0.0416
ATCAACAG	0.0678
AGATAGAA	-0.00467
TAAACCCA	-0.17
CTTATCGA	-0.0575
AGCTCCAT	-0.0675
GGTATATA	-0.092
ACACTATA	-0.22
CATGAGGC	-0.035
GTCTATAA	-0.139
AAGATAGG	-0.276
AGCATATG	-0.293
ATTGGGGC	0.0146
AAGGCCCG	0.128
ACAAATCG	0.0892
GCGATGCC	0.0401
GTGAGCAA	-0.151
CCTAGGAC	-0.145
GAGTCAGC	-0.177
CCCCTCAC	-0.0114
GCTTCTGA	0.0266

Sequence	PBM E-score
AGACATGA	-0.29
GGAACTTA	0.155
AAGAGCGT	-0.0223
ATTCACAC	-0.111
GCTACGCA	-0.0598
GGCCTCCC	0.00603
ACTCCCAT	-0.16
AGAATTCA	-0.205
CTTCTGGA	-0.00858
TGCTTCCA	-0.38
AGGGCCAG	-0.235
ACTGCAGT	-0.278
ACGAACAT	0.0644
CGCTGTAA	-0.00822
ACACATTG	0.0706
ATTGACTG	-0.19
TTATACAA	0.0139
ATTTTCGG	0.376
CCGGGACG	0.322
CATCTCCA	0.0295
GGGATTAA	0.223
ATAAGGAA	-0.248
GTCATCTA	-0.101
GACATGCC	0.00109
AGAAATCT	0.0291

Sequence	PBM E-score
AGCCCTAC	-0.066
GTGTTGCA	0.023
CAATAGCG	0.0458
CTATTAAC	-0.0715
TGGGAGAA	-0.208
ATCAGCCG	0.208
ACATCCGC	0.352
CATCCGAC	0.289
ACAGGATG	0.0452
ACAGGAGA	-0.0277
ACTCCCAG	0.0262
ACAGATGT	-0.119
GCGCGCGA	0.201
ACTTGGAG	-0.0915
AGTCGACT	-0.0186
ACTATGGC	-0.287
AGGTTTGC	-0.0682
GGTGCGCA	0.132
AGTGTGGA	-0.0758
ATTCGACG	-0.067
ATACCCAC	0.101
TATTCAAA	-0.114
GACGAAAC	0.0422
ACATTCCC	0.129
GCTTCACC	-0.0695

Sequence	PBM E-score
CTCATCAG	-0.0816
AGGACCGA	0.0864
CAGCGTGA	-0.284
AGGATTTA	0.00139
ATGTTTAG	-0.101
TCTCCCAA	-0.00572
AGTGTCAT	-0.146
AAGATAAA	-0.0217
AAGCGGTA	0.038
ACGCGAGG	-0.0852
CCTCTATC	-0.149
ATCTTGTG	-0.263
AAGGAAGT	0.0463
CATAACCG	0.0997
CCCCGGCC	0.287
ATCCTCAG	0.0306
CGCCTCGA	-0.0522
AACAAAGC	0.021
ACGCAAAA	-0.0506
CCCCTACA	-0.101
AGTTTCAT	0.0398
GCAGCATA	-0.106
CCACCGCA	0.115
TACATTCA	-0.223
TACAGACA	-0.175

Sequence	PBM E-score
CCTTCCGA	0.25
GGTTTTAC	0.0115
TGACGACA	-0.022
CCCGCGCA	0.252
AACGGTAG	-0.108
GCACTGGC	-0.215
ATGCTTAC	-0.252
CTTCGAAG	-0.118
GATCGTGC	-0.0347
GAAAAGCA	-0.133
CACCAGAC	-0.0118
CCGCCGCC	0.304
GCAAGCAA	-0.095
AATTGGAG	-0.157
CAAATTTA	0.016
CATGCGAC	-0.177
ACTCGTCC	-0.0356
GAGCACAA	0.089
CAAAAAGC	0.142
CGCGCGGC	0.325
ATCTTAAC	-0.14
ATTGTCCA	-0.113
AGGTTTAG	-0.0626
AACAATTC	-0.0718
TATCCCGA	0.258

Sequence	PBM E-score
CAGGTCTC	-0.273
CTATTAAA	-0.163
CCTGGCAC	-0.165
AATTAGTG	-0.0849
GAATCCCA	-0.0924
TCGTTCAA	-0.123
AGTATAAC	-0.215
CGGAGTCA	0.457
CAGGGCCG	0.181
ATTGCTGC	-0.0351
CAACCCTC	-0.121
GGTTAACA	0.0497
CCCGGCTA	0.299
ACCTTAGA	0.0129
AGAAGCTG	-0.172
ACAGATTA	-0.129
AGGATGCC	-0.0669
AGTAGAAC	-0.246
ATCATAAC	-0.08
